Reference: PubChem BioAssay AID1508624 (National Center for Advancing Translational Sciences (NCATS), 2021)
The whole screen tested about 48,000 compounds, of which about 120 (0.25%) were called active. About 4% were inconclusive and are not listed. The call rests on the fitted dose curve; in most records, active means well fitted activation curve with a large enough effect; inconclusive means small, poorly fitted or top-dose-only effect, or another doubt; inactive means no such curve, though single readings can be large or run the other way. The list shows a part of the results.

test: Primary qHTS for Identification of Small Molecule Activators of Huntingtin-Antisense Promoter Activity; details: HEK293 HTT-AS promoter firefly luciferase reporter, 24 h; series mostly up to 57.5 µM; activity change, positive = activation: at the top concentration; further: nearly all actives have a fitted effect of over 55% in size
Summary of the method: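 HEK293 Fluc reporter, 2,500 cells/well, 24 h pre-culture; cpds up to 57.5 uM final, 24 h 37 degrees C; Dual-Glo, 10 min RT; normalized vehicle = 0%, zero RLU = -100%.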

Row | Structure (SMILES) | activity change, positive = activation
1 | CCCN1C(=O)c2[nH]nc(-c3ccc(F)cc3)c2C1c1ccccn1 (stereo not drawn) | inactive: -17.4%
2 | CC1CN(C(=O)N2CCC(C(=O)NC3CCCCCC3)CC2)c2ccccc2O1 (stereo not drawn) | inactive: -23.9%
3 | O=C(c1ccco1)n1nc(-c2ccccc2)nc1NCc1ccccc1Cl | inactive: -10.7%
4 | CC(=O)Nc1ccc(S(=O)(=O)NCCc2csc3nc(-c4cccc(C)c4)nn23)cc1 | inactive: -30.4%
5 | Cc1ccc(N(Cc2cccs2)C(=O)COc2ccccc2[N+](=O)[O-])cc1 | inactive: -31.3%
6 | Cc1cccc(-c2nc(Cn3c(SCc4cc(C)ccc4C)nc4ccncc43)c(C)o2)c1 | inactive: -23.1%
7 | CCc1ccc(NC(=O)CSc2nc3ccsc3c(=O)n2C(C)CC)cc1 (stereo not drawn) | inactive: -32.8%
8 | O=C(NCc1ccccc1Cl)C1CCC(CNS(=O)(=O)c2ccc(Br)s2)CC1 (stereo not drawn) | inactive: -10.5%
9 | COc1ccc(CCNC(=O)c2nn(C)c3c2CSc2ccccc2-3)cc1OC | inactive: -21.8%
10 | O=C(NCc1ccccc1)C(=O)NCC(c1cccnc1)N1CCN(c2ccccc2)CC1 (stereo not drawn) | inactive: -32.1%
11 | Cc1ccc(-c2nn3c(-c4ccc(C)cc4)nnc3c3ccccc23)cc1 | inactive: -12.5%
12 | CNS(=O)(=O)CCc1ccc2[nH]cc(C3CCN(C)CC3)c2c1 | inactive
13 | COc1ccccc1-n1c(SCC(=O)Nc2ccc(C)cc2)nc(O)cc1=O | inactive: 3.01%
14 | O=C(CCCn1c2ccccc2c(=O)c2ccccc21)Nc1ccc(F)cc1Cl | inactive: -27.3%
15 | COc1cc(CN(C(=O)c2oc3ccccc3c2C)C2CCS(=O)(=O)C2)cc(OC)c1OC (stereo not drawn) | inactive: 8.07%
16 | O=c1c2cc3c(nc2ncn1Cc1ccccc1F)CCCC3 | inactive: -5.16%
17 | CCOC(=O)c1cnc2c(ccc3ccccc32)c1Nc1ccc(OC)c(OC)c1 | inactive: -25%
18 | CCOc1ccc(Cn2c(CNS(=O)(=O)c3ccc([N+](=O)[O-])cc3)nc3cccnc32)cc1 | inactive: -19.4%
19 | COc1ccc(C(=O)NCCSc2c(C)[nH]c3ccccc23)cc1 | inactive: -39.5%
20 | COCCn1ccc2c(OCC(=O)NCc3ccc(F)cc3)cccc2c1=O | inactive: -15.8%
21 | Cc1ccc(NC(=O)Nc2nnc(SCC(=O)N3CCC(C)CC3)s2)cc1 | inactive: -29.2%
22 | Cc1ccc(N2CC(c3nnc(NC(=O)c4ccco4)s3)CC2=O)cc1C (stereo not drawn) | inactive: -17.2%
23 | O=C(NC1CCCC1)c1ccc(CSc2nc3ccncc3n2Cc2ccc(F)cc2)cc1 | inactive: -16.6%
24 | COc1ccc(-n2cc(C(=O)NC(C)c3ccccc3)c3ccccc3c2=O)cc1 (stereo not drawn) | inactive: 18%

Row | Structure (SMILES) | activity change, positive = activation
25 | Cc1ccc(NC(=O)Cn2cc(S(=O)(=O)N3CCCC3)c(S(=O)(=O)N3CCCC3)c2)cc1C | inactive: 18.9% [at 11.5 µM, percent change from vehicle, -100% = no light]
26 | CCCCC[C@H](O)C=C[C@H]1[C@H](O)CC(=O)[C@H]1CC=CCCCC(=O)O | inactive: -5.11%
27 | CCOc1ccc(NC(=O)c2ccc(-c3cccc(Cl)c3C)o2)cc1 | inactive: -6.84%
28 | CCOc1ccc(N(CC)S(=O)(=O)N2CCCC(C(=O)NCc3ccc(SC)cc3)C2)cc1 (stereo not drawn) | inactive: -54.2%
29 | COc1cccc(CNC(=O)NCc2noc3ccc(C)cc23)c1 | inactive: -17.7%
30 | Cc1ccc(NC(=O)CN2C=NS(=O)(=O)c3ccccc32)c(C)c1 | inactive: -15%
31 | COc1ccc(N2CCN(C(=O)CCS(=O)(=O)c3cc(Br)cc4c3N(C(=O)C3CC3)CC4)CC2)cc1 | inactive: -4.88%
32 | COc1ccc(NC(=O)CN2C(=O)COc3ccc(S(=O)(=O)N4CCOCC4)cc32)cc1Cl | inactive: -14.9%
33 | COc1ccc(NC(=O)Nc2nnc(N3CCCCCC3)s2)c(OC)c1 | inactive: -9.03%
34 | COc1ccccc1-c1cc(C(F)(F)F)nc(S(=O)(=O)CCCC(=O)Nc2ccc(F)c(Cl)c2)n1 | inactive: -7.46%
35 | COc1ccc(C(=O)N2CCC(c3c[nH]c4ccccc34)(c3c[nH]c4ccccc34)CC2)cc1 | inactive: -33.8%
36 | COc1ccc(NC(=O)c2cc(C3CC3)nc3c2c(C)nn3-c2ccc(C)cc2)cc1OC | inactive: -13.1%
37 | CN(C)c1ccc(CNC(=O)C2CCN(S(=O)(=O)c3cn(C)cn3)CC2)cc1 | inactive: -2.64%
38 | COc1ccccc1CNC(=O)c1oc2c(c1C)-c1nn(Cc3ccc(Cl)cc3)cc1CC2 | inactive: -28.6%
39 | Cc1ccc(C)c(CN2C(=O)c3ccccc3S(=O)c3ccc(C(=O)NCCc4ccc(Cl)cc4)cc32)c1 (stereo not drawn) | inactive: -30.8%
40 | COc1ccc(NC(=O)c2sc3nc(-c4cc5cccc(OC)c5oc4=O)[nH]c(=O)c3c2C)cc1 | inactive: -5.2%
41 | Cc1c(NS(C)(=O)=O)cccc1-c1nc2ccccc2s1 | inactive: -26%
42 | Cc1ccccc1CN1C(=O)c2ccccc2S(=O)c2ccc(C(=O)NCc3ccco3)cc21 (stereo not drawn) | inactive: -21.3%
43 | CCN(C(=O)CCS(=O)(=O)c1ccc2c(c1)oc(=O)n2C)c1ccc(OC)cc1 | inactive: 14.9% [at 11.5 µM, percent change from vehicle, -100% = no light]
44 | Cc1ccc(NC(=O)CSc2nc3c(c(=O)[nH]2)CCC3)cc1Cl | inactive: -6.47%
45 | CCS(=O)(=O)N1CCC2(CC1)OC(=O)C(C)=C2C(=O)NCc1cccc(Cl)c1 | inactive: -14.4%
46 | CCn1c(COc2cccc(C)c2)nc2ccccc21 | inactive: -17.8%
47 | O=S(=O)(c1ccc(Br)cc1)c1nc(-c2cccs2)oc1SCc1ccc(F)cc1 | inactive: -11.3%
48 | COc1cc2c(cc1NC(=O)COc1ccc(Br)cc1C)oc1ccccc12 | inactive: 10.2%

Row | Structure (SMILES) | activity change, positive = activation
49 | Cc1ccccc1NS(=O)(=O)c1ccc2c(c1)NC(=O)CCS2 | inactive: -25.5%
50 | CCn1c(SCC(=O)Nc2ccccc2)nc2c([nH]c3ccccc32)c1=O | inactive: -8.24%
51 | CC(C)CCNC(=O)CCC(=O)N1Cc2ccccc2Oc2ncccc21 | inactive: -14.4%
52 | Cc1ccc(S(=O)(=O)Nc2ccc3[nH]c(=O)sc3c2)cc1C | inactive: -20.9%
53 | O=C(c1ccc2c(c1)N(Cc1ccc(Cl)cc1)C(=O)c1ccccc1S2(=O)=O)N1CCC(Cc2ccccc2)CC1 | inactive: -37.4%
54 | COc1cccc(-n2c(=O)c3cc(OC)c(OC)cc3n(CC(=O)Nc3ccccc3)c2=O)c1 | inactive: -20.5%
55 | O=C(c1ccc2c(c1)N(Cc1ccc(F)cc1)C(=O)c1ccccc1S2(=O)=O)N1CCCCCC1 | inactive: -38.3%
56 | CCOc1ccc(NC(=O)CSC2=Nc3ccccc3C3=NC(CC(=O)NCc4ccccc4OC)C(=O)N23)cc1 (stereo not drawn) | inactive: -50.4%
57 | Cc1ccc(N2CC(NC(=O)c3ccco3)CC2=O)cc1 (stereo not drawn) | inactive: -5.65%
58 | O=C(Nc1cc2c(cc1C(=O)c1ccc(Br)cc1)OCCO2)c1ccc(Cl)cc1 | inactive: -5.2%
59 | Cc1oc(-c2ccccc2F)nc1CS(=O)(=O)CC(=O)N1CCN(c2ccc(Cl)cc2)CC1 | inactive: -55.1%
60 | CCc1cccc(NC(=O)c2c(N3CCCC3=O)c3cc(C)ccc3n2C)c1 | inactive: -43.1%
61 | Cc1ccc(C)c(S(=O)(=O)c2cn(C)c3cc(F)c(F)cc3c2=O)c1 | inactive: 13.5%
62 | COc1ccc(CCn2c(=O)c3ccccc3n(CC(=O)Nc3cccc(C)c3)c2=O)cc1OC | inactive: 3.42%
63 | CC(=O)Nc1ccccc1-c1nc2ccccc2n(CC(=O)Nc2ccc(C)c(Cl)c2)c1=O | inactive: -3.55%
64 | Cc1ccc(S(=O)Cc2ccc(C(=O)NC3CCCCCC3)o2)cc1 (stereo not drawn) | inactive: -11.2%
65 | CNC(=O)CN(CCN(CCN(CC(=O)[O-])CC(=O)NC)CC(=O)[O-])CC(=O)[O-].O.[Gd+3] | inactive: 1.48%
66 | O=C(/C=C/c1ccc(O)c(O)c1)O[C@@H]1C[C@@](OC(=O)/C=C/c2ccc(O)c(O)c2)(C(=O)O)C[C@@H](O)[C@@H]1O | inactive: -4.43%
67 | COC(=O)c1sc(-c2ccccc2)cc1NC(=O)Nc1ccccc1Cl | inactive: -17.6%
68 | Cc1cc(C)cc(Nc2nc3ccccc3nc2-n2nc(C)cc2C)c1 | inactive: -11.8%
69 | CCOC(=O)N1CCc2c(sc3c2c(=O)n(Cc2ccccc2)c(=O)n3CC(=O)Nc2cccc(C)c2)C1 | inactive: -18%
70 | COc1ccc(-c2cn3c(n2)sc2cc(C(=O)Nc4c(C)cccc4C)ccc23)cc1 | inactive: 11.9%
71 | Cc1ccc(CNC(=O)C2(c3cccs3)CCOCC2)cc1 | inactive: -11%
72 | CCOc1ccc(NC(=O)CSc2ncnc3c2sc2ccccc23)cc1 | inactive: -3.73%

Row | Structure (SMILES) | activity change, positive = activation
73 | COc1ccc(C(=O)n2nc(-c3ccc(Cl)cc3)nc2NCc2ccco2)cc1 | inactive: 7.42%
74 | CN(C)S(=O)(=O)c1ccc(C(=O)Nc2c(C(=O)Nc3ccc(F)cc3)oc3ccccc23)cc1 | inactive: 4.45%
75 | CCc1ccc(NC(=O)c2cc3c(COC(C)=O)cnc(C)c3oc2=O)cc1 | inactive: -5.88%
76 | COc1ccccc1C(=O)Nc1c(C(=O)N2CCN(c3ccccc3F)CC2)oc2ccccc12 | inactive: -17.8%
77 | COc1ccc(NC(=O)CCCSc2nc(-c3ccco3)cc(C(F)(F)F)n2)cc1 | inactive: -6.85%
78 | Cc1cc2c(cc1S(=O)(=O)NCc1ccccc1)OCC(=O)N2 | inactive: -10.7%
79 | Cc1ccc(NC(=O)c2ccc(COc3ccccc3Cl)o2)cc1 | inactive: 7.74%
80 | O=C(c1ccccc1)c1ccc2nc(N3CCN(c4ccccc4)CC3)c3nncn3c2c1 | inactive: -15.9%
81 | Cc1ccc(CNC(=O)c2ccc3c(c2)NC(=O)C(CS(=O)(=O)Cc2ccc(F)cc2)N3)cc1 (stereo not drawn) | inactive: -8.46%
82 | CN(C)c1cccc(C(=O)Nc2nc3ccc(S(=O)(=O)NC(C)(C)C)cc3s2)c1 | inactive: -8.9%
83 | CC(C)(C)c1ccc(C(=O)Nc2ccc(C(=O)OCc3cc(=O)n4ccsc4n3)cc2)cc1 | inactive: -42.8%
84 | CCC1CCCCN1CCCNC(=O)c1cn(CC)c2ccc(S(=O)(=O)N(C)C3CCCCC3)cc2c1=O (stereo not drawn) | inactive: -12.5%
85 | Cc1nc2ccc(S(=O)(=O)CCC(=O)Nc3ccc(C(C)C)cc3)cc2s1 | inactive: -14.4%
86 | O=C(CSc1ccccc1)N1CCc2c([nH]c3ccccc23)C1c1ccc(Cl)cc1 (stereo not drawn) | inactive: -32.5%
87 | Cc1cccc(S(=O)(=O)c2cn(C)c3cc(N4CCCCCC4)c(F)cc3c2=O)c1 | inactive: -0.984%
88 | Cc1cccc(NC(=O)c2cc(CN3CCOCC3)on2)c1C | inactive: -3.42%
89 | COc1ccc(NC(=O)Cn2nc3c(cc2=O)CCCC3)cc1Cl | inactive: -21.4%
90 | CCCCc1nn2c(=O)cc(CN(CC)c3ccccc3)nc2s1 | inactive: -27.7%
91 | COc1cccc(C(=O)c2cn(CC(=O)Nc3cc(Cl)c(OC)cc3OC)c3nc(C)ccc3c2=O)c1 | inactive: -20.5%
92 | Cc1nc(N2CCCC2)ncc1C(=O)NCc1ccc(Cl)cc1 | inactive: -7.93%
93 | CC1=C(c2ccc(F)cc2)S(=O)(=O)N=C1N1CCC(C(=O)NCCc2ccccc2)CC1 | inactive: -7.5%
